Our source for the binding signal values is PMC10668032.

The list shows a part of the results. At the low end of the ranking the order means little.

The test deals with SIX1-Q177R homeodomain (UniProt Q15475). Nature of the test: universal protein binding microarray. Particulars: Universal all-10-mer PBM (8x60K, AMADID 030236), 300 nM GST-tagged protein, Alexa Fluor 488 anti-GST; buffer, salt, pH and temperature not stated; high values mean tight binding; most listed sequences are background and not binding sites; double strand, one strand shown.
In the case of AAGGATAT, the binding signal was -0.101 E-score.

Consider ACTTTGCC, for which the binding signal is -0.342 E-score.

Consider ACGCTATA, for which the binding signal was -0.149 E-score.

Consider AGTACTTA, for which the binding signal was -0.167 E-score.

Regarding AGCCTCCG, the binding signal is -0.114 E-score.

As for AGCGAACA, the binding signal worked out at 0.00511 E-score.

Take GTCTGAGA: the binding signal was -0.055 E-score.

Turning to CGAAAGGC, the binding signal was -0.173 E-score.

Take AAATGAAC: the binding signal was -0.0761 E-score.

Take AAGTGTCA: the binding signal stood at 0.418 E-score.

As for GTCAGGTA, the binding signal came out at 0.0967 E-score.

In the case of ATTGAAGA, the binding signal is -0.154 E-score.

For the sequence ACAAAAGT, the binding signal is -0.287 E-score.

For CCCACAGC, the binding signal came out at 0.144 E-score.

Regarding ACATAAGC, the binding signal was -0.173 E-score.

Consider AGTCACAC, for which the binding signal is 0.326 E-score.

With CGATCATC, the binding signal is -0.128 E-score.

In the case of AGATGTGC, the binding signal is -0.208 E-score.

For ATTCCTCG, the binding signal is -0.0536 E-score.

With GCATTTAC, the binding signal is -0.0427 E-score.

Turning to CGCTATAG, the binding signal amounted to 0.00779 E-score.

Consider CTACTCGC, for which the binding signal is 0.0269 E-score.

For AACCTGCA, the binding signal was -0.131 E-score.

For the sequence CGAAGCAC, the binding signal was determined as 0.0809 E-score.

With CACCAGTA, the binding signal was found to be 0.272 E-score.

In the case of CGGCCTCA, the binding signal was -0.174 E-score.

With AAGGTAGT, the binding signal was found to be 0.0872 E-score.

Turning to ACCAGTTA, the binding signal turned out to be 0.11 E-score.

On to GAGGTTCA, for which the binding signal is -0.045 E-score.

As for CCCTATAG, the binding signal was -0.132 E-score.

For the sequence GACTTACA, the binding signal was 0.041 E-score.

On to TAATAATA, for which the binding signal is -0.0808 E-score.

Turning to GACACTCA, the binding signal came to 0.422 E-score.

Take CCGTTATC: the binding signal was -0.133 E-score.

For the sequence GGAAAGTA, the binding signal was -0.212 E-score.

For CCTCACGA, the binding signal was -0.0243 E-score.

Regarding ACAGTAGT, the binding signal came to 0.0989 E-score.

For the sequence AAACAAGC, the binding signal is -0.117 E-score.

For the sequence CACGCAAC, the binding signal stood at 0.227 E-score.

As for ATTTCCTG, the binding signal is -0.23 E-score.

In the case of CCACCAAG, the binding signal amounted to 0.0904 E-score.

As for TCTGATAA, the binding signal was -0.114 E-score.

In the case of ATTCAATA, the binding signal was -0.0774 E-score.

Regarding ATGGACAT, the binding signal was -0.167 E-score.

With AGAGACCC, the binding signal amounted to 0.144 E-score.

For the sequence ACGCTCGG, the binding signal is -0.0631 E-score.

Turning to CACTTCGG, the binding signal turned out to be 0.11 E-score.

GTCCAGCA: the binding signal is -0.171 E-score.

As for GACCCGCA, the binding signal worked out at 0.000305 E-score.

In the case of AGCCCTGC, the binding signal is -0.0829 E-score.

In the case of CAGAAGCA, the binding signal was -0.174 E-score.

Consider CGCTCATC, for which the binding signal was -0.217 E-score.

Turning to CCCTCCTC, the binding signal worked out at 0.0457 E-score.

For the sequence AGCCCAAT, the binding signal was -0.204 E-score.

As to ATAAGACC, the binding signal is -0.16 E-score.

Regarding ATGCAAAG, the binding signal is -0.161 E-score.

Turning to CGATCCCA, the binding signal came out at 0.146 E-score.

GTAGAAAC: the binding signal was -0.0645 E-score.

Turning to AACAGGAG, the binding signal is 0.131 E-score.

As for TACCTACA, the binding signal is 0.312 E-score.

On to TCCAAGCA, for which the binding signal is -0.172 E-score.

ATCCGCTG: the binding signal was determined as 0.0335 E-score.

For the sequence CCCGGGAA, the binding signal was 0.0431 E-score.

With AGTCCTAG, the binding signal was 0.0211 E-score.

With ATTATCAA, the binding signal came to 0.131 E-score.

As for AAGTATCG, the binding signal stood at 0.103 E-score.

Consider CGTCATAG, for which the binding signal was -0.258 E-score.

In the case of AGTGTCAA, the binding signal came out at 0.424 E-score.

Consider GGGAGGAC, for which the binding signal was -0.113 E-score.

Turning to AAGTCCGC, the binding signal was -0.287 E-score.

As for ATCGGATA, the binding signal is 0.17 E-score.

Regarding CCTGAGTC, the binding signal was 0.0217 E-score.

For AATCCACT, the binding signal was 0.122 E-score.

In the case of AGTACTGA, the binding signal is -0.00458 E-score.

Take GAACGCAC: the binding signal amounted to 0.0154 E-score.

For ACGCAGGG, the binding signal was found to be 0.164 E-score.

For the sequence CCACCAAA, the binding signal was -0.0128 E-score.

Consider CAATAGGC, for which the binding signal was -0.0592 E-score.

For CCCCATAC, the binding signal was 0.057 E-score.

Turning to AATAATCC, the binding signal was -0.0226 E-score.

Consider AGTAGACC, for which the binding signal was -0.233 E-score.

Take AGGGCCCG: the binding signal stood at 0.00179 E-score.

For GGATTCAC, the binding signal was 0.0237 E-score.

In the case of AGTGCACC, the binding signal stood at 0.28 E-score.

For CCAGATAC, the binding signal worked out at 0.0953 E-score.

Regarding ACATACAC, the binding signal was found to be 0.421 E-score.

In the case of AGGTAGAA, the binding signal was -0.0367 E-score.

Consider AACTCAGC, for which the binding signal is -0.244 E-score.

Turning to AAAGTGCG, the binding signal was -0.125 E-score.

For the sequence AGAGTTAA, the binding signal came out at 0.0409 E-score.

Take GCACCGAC: the binding signal worked out at 0.225 E-score.

CACGGATA: the binding signal came out at 0.178 E-score.

Consider AGCCAACA, for which the binding signal is 0.0287 E-score.

On to AGAATTCC, for which the binding signal is -0.176 E-score.

As to AAGGGTGT, the binding signal was determined as 0.464 E-score.

With AGGAAATC, the binding signal is -0.17 E-score.

Take CTACCTCC: the binding signal was -0.0719 E-score.

On to AGTAAGTG, for which the binding signal stood at 0.12 E-score.

Regarding CTAGGGAC, the binding signal was determined as 0.0414 E-score.

For CACGCTCC, the binding signal came to 0.14 E-score.

Consider AGCACGAT, for which the binding signal stood at 0.0126 E-score.

On to GCGCCCAC, for which the binding signal is -0.0252 E-score.

ACTGGTCA: the binding signal is -0.092 E-score.

For the sequence GACGAGTC, the binding signal is -0.0733 E-score.

On to ATGCCAAC, for which the binding signal is -0.185 E-score.

Turning to GGTTCCTA, the binding signal worked out at 0.0994 E-score.

As for CTCAGCAC, the binding signal came out at 0.185 E-score.

With CCCACGTC, the binding signal turned out to be 0.0689 E-score.

Consider ACACTCGC, for which the binding signal stood at 0.385 E-score.

On to AGTTCAGG, for which the binding signal was -0.0779 E-score.

On to AGGTCCGC, for which the binding signal was -0.169 E-score.

TCTTCACA: the binding signal is -0.0429 E-score.

Turning to ACCCCACG, the binding signal is 0.267 E-score.

Turning to ATAATTGG, the binding signal was -0.169 E-score.

As for TAAGCAGA, the binding signal was -0.224 E-score.

TACCGAAA: the binding signal was -0.235 E-score.

Take CCTAAAGG: the binding signal was -0.0597 E-score.

As to AGTATTAC, the binding signal was -0.0572 E-score.

With GGCTAGTA, the binding signal amounted to 0.018 E-score.

With AGTCGCAG, the binding signal is -0.191 E-score.

Take AGACCCAT: the binding signal is -0.214 E-score.

On to GGCCTAGA, for which the binding signal was -0.173 E-score.

As to GAGATAGC, the binding signal was -0.12 E-score.

Take TGGCGAAA: the binding signal was -0.203 E-score.

CTTAAGGA: the binding signal was -0.203 E-score.

Regarding GTTTGAGA, the binding signal is -0.236 E-score.

Turning to GAAGCGAC, the binding signal was -0.0645 E-score.

Regarding ATTGTCGG, the binding signal was -0.0948 E-score.

On to GCACCGCC, for which the binding signal turned out to be 0.265 E-score.

Consider AAAAGATA, for which the binding signal is -0.243 E-score.

With AAAAATTC, the binding signal is 0.00686 E-score.

For the sequence AGAAGGCG, the binding signal was -0.119 E-score.

On to ATACAACC, for which the binding signal stood at 0.0293 E-score.

For AACTAACA, the binding signal was 0.242 E-score.

For the sequence ATGGCAAT, the binding signal was -0.28 E-score.

Regarding GGAGAAGA, the binding signal is -0.184 E-score.

For the sequence CTATAGAA, the binding signal was -0.0387 E-score.

As for TGCGACAA, the binding signal is -0.228 E-score.

On to CCTCTTAG, for which the binding signal is -0.157 E-score.

For the sequence CCCGTTAG, the binding signal is -0.0237 E-score.

For CTTTCTTC, the binding signal is -0.222 E-score.

In the case of CAGTCAGA, the binding signal is 0.00636 E-score.

Regarding CACCTCGA, the binding signal worked out at 0.217 E-score.

As to AAACTCCC, the binding signal was -0.0635 E-score.

For GAATGAAC, the binding signal is -0.191 E-score.

For ACAGTCCA, the binding signal was -0.176 E-score.

Turning to CTACTGCA, the binding signal was 0.0454 E-score.

Turning to GTAGATTA, the binding signal is 0.143 E-score.

Regarding AGCCATAT, the binding signal is -0.0662 E-score.

GACTGCCA: the binding signal is -0.194 E-score.

Turning to CGACCATC, the binding signal came to 0.073 E-score.

Turning to ACTCGTCC, the binding signal is -0.129 E-score.

For the sequence ATAGGGCG, the binding signal was -0.102 E-score.

Turning to CACGCACA, the binding signal stood at 0.262 E-score.

Consider ACGCGCCA, for which the binding signal was -0.0748 E-score.

Take GGGCTCAC: the binding signal worked out at 0.0957 E-score.

For the sequence AGCCTTCC, the binding signal was -0.338 E-score.

For CACGAACG, the binding signal is 0.207 E-score.

On to ACTGGTTC, for which the binding signal came out at 0.116 E-score.

With CGCGTATA, the binding signal came out at 0.02 E-score.

For ATGTCATA, the binding signal is -0.242 E-score.

Consider GCGCGGAA, for which the binding signal is -0.0705 E-score.

Turning to ACTCCGCA, the binding signal was 0.225 E-score.

As for AACTAAGC, the binding signal is -0.111 E-score.

Turning to AGCAACTG, the binding signal is -0.283 E-score.

For AGCTCAGA, the binding signal was -0.225 E-score.

Take AACAGCGG: the binding signal is -0.224 E-score.

As for CGGTCACC, the binding signal is -0.0347 E-score.

As for AAGCTTTG, the binding signal is -0.199 E-score.

On to GCTTTATA, for which the binding signal came out at 0.0268 E-score.

With ACGACCAG, the binding signal was determined as 0.101 E-score.

For the sequence ATCGTCAG, the binding signal is -0.0499 E-score.
